Experimental data as given in PubChem BioAssay AID1159614 (National Center for Advancing Translational Sciences (NCATS), 2016).
About 65 (0.1%) of roughly 45,000 compounds were called active. Calls come from the whole dose curve; as a rule, active = well fitted activation curve with a large enough effect; inconclusive = small, poorly fitted or top-dose-only effect; inactive = no such curve, though single readings can be large or run the other way. The list shows a part of the results.

What follows are molecules tested against Galactocerebrosidase (Homo sapiens) (UniProt P54803) (assay: A Novel Cell-Based Assay to Identify Small Molecules for B -Galactocerebrosidase). Conditions: 145M-Twi-hGALC-G270D cells (Twitcher mouse brain line with human GALC G270D), HMU-beta-Gal fluorescence, 48 h; series mostly up to 57.5 µM; activation: at the top concentration.
How it was run: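 Fluorescence readout: HMU-β-gal cleavage by mutant GALC (0.1 mM final, citrate/phosphate pH 5.2 with 1 mg/mL taurocholate), stopped with carbonate/bicarbonate plus Triton X-100. Cells: murine Twitcher 145M-Twi expressing human G270D GALC; qHTS for activators.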
Note: 0% is about no effect; nearly all actives have a fitted effect of over 65% in size.

Sequence of UniProt P54803 (P54803 whole entry, looked up): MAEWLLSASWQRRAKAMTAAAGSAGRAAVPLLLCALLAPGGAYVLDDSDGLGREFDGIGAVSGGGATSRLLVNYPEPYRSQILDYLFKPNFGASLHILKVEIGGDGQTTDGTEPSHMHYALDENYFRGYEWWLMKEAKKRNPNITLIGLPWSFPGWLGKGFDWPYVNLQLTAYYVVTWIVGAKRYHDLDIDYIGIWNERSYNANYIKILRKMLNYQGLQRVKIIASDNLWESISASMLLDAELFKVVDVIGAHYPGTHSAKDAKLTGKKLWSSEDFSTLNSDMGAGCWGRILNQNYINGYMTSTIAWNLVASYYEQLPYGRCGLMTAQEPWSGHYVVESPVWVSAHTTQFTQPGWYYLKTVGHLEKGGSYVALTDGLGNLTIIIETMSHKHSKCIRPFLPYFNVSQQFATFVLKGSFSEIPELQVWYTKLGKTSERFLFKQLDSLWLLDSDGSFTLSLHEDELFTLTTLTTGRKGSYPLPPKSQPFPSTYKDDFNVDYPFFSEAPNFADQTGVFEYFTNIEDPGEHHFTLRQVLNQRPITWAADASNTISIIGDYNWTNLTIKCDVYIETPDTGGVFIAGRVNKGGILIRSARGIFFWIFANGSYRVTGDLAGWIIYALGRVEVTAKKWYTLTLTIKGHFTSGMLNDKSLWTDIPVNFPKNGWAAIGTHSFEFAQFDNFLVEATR

activation, inactive:
COc1ccc(CCNC(=O)CCCn2c(=O)c3cccn3c3cccnc32)cc1OC -10.2%
Cc1ccc2c(CN3CCN(Cc4ccccc4Cl)CC3)cc(=O)oc2c1 -10.2%
CCOc1ccc(CNC(=O)c2ccc(Sc3ccc(Cl)cc3)c(NC(C)=O)c2)cc1 -0.376%
COc1ccc(NC(=O)CSc2cn(CC(=O)N3CCCCC3)c3ccccc23)c(OC)c1 -3.58%
CCCC(=O)Nc1ccc2c(c1)nc(CN1CCN(C(=O)OCC)CC1)n2C(C)C 6.87%
CCOC(=O)c1c(NC(=O)COc2cccc(C(F)(F)F)c2)sc2c1CCC(C)C2 (stereo not given) -19.4%
CCn1c2ccccc2c2nnc(N3CCN(c4ccc(F)cc4)CC3)nc21 -16.1%
CCN(CC)c1nn2c(=O)c(C(=O)NCCc3ccc(C)cc3)cnc2s1 -14%
COc1ccc(NC(=O)c2ccc(CN3C(=O)CCn4nc(C)cc43)cc2)c(OC)c1 -2.11%
Cc1nc2sc(C(=O)N(C)Cc3ccccc3)c(NC(=O)c3ccccc3)c2c(C)c1Cl -14.4%
CCOC(=O)c1cc2c(=O)n3ccccc3nc2n(CC2CCCO2)c1=NC(=O)c1ccc(C(C)(C)C)cc1 (stereo not given) -29%
COc1ccc(N2CC(NC(=O)COc3ccccc3F)CC2=O)cc1OC (stereo not given) -12.3%
CCOc1ccc(NC(=O)CSc2oc(-c3ccco3)nc2S(=O)(=O)c2ccc(C)cc2)cc1 -8.73%
COc1ccc(C)c2sc(NC(=O)c3ccc(S(=O)(=O)N4CCCCC4)cc3)nc12 -9.15%
CC(C)CCNC(=O)CN1C(=O)CCn2nc(-c3cn(C)c4ccccc34)cc21 -16.2%
Cc1cc(C)cc(Nc2ncnc3c2nc2n3CCCC2)c1 -2.25%
CCOc1ccc(CCNC(=O)c2ccc(-c3nc(CSc4ccc(C)cc4)c(C)o3)cc2)cc1 -19.4%
CCCOc1ccc(/C=C/C(=O)Nc2sc(C)c(C)c2C(=O)OCC)cc1OC -13.8%
CCCN1CCN(CCCNC(=O)c2cc3c(Cl)nc4ccccc4c3s2)CC1 -8.5%
CCOc1ccc(S(=O)(=O)NCCc2csc(-c3ccc(Cl)cc3)n2)cc1 -16.1%
Cc1nnc(SCc2cc(=O)c3ccccc3[nH]2)s1 -3.69%
Cc1nc(S(=O)(=O)N2CCN(c3ccc(Cl)cc3)CC2)cn1C -20.3%
COc1ccccc1NC(=O)Cn1nnc(C(=O)NCc2cccs2)c1N -1.48%
O=c1cc(COc2ccccc2Cl)nc2scc(-c3ccccc3)n12 -4.4%
CCc1cccc(NC(=O)CSc2ncc3c(n2)-c2cc(Cl)ccc2N(C)S3(=O)=O)c1 -20.6%
CCOC(=O)c1ccc(N2C(=O)c3[nH]nc(-c4ccc(OC)cc4)c3C2c2cccc(O)c2)cc1 (stereo not given) 11.2%
COc1ccccc1CNC(=O)CCn1c(=O)c2ccccc2n(CC(=O)Nc2cc(Cl)ccc2C)c1=O -0.68%
O=C(Nc1cccc(C(=O)OCc2cc(=O)n3c4c(sc3n2)CCCC4)c1)c1cccc(F)c1 -14.7%
COc1ccc(NC(=O)CCS(=O)(=O)c2nc(-c3ccc4c(c3)OCO4)cc(C(F)(F)F)n2)cc1OC -6.25%
CCC(C)NC(=O)CCSc1nc(-c2ccc3c(c2)OCO3)cc(C(F)(F)F)n1 (stereo not given) -10.5%
C[C@]12C=CC(=O)C=C1[C@@H](F)C[C@@H]1[C@@H]2[C@@H](O)C[C@@]2(C)[C@H]1CC[C@]2(O)C(=O)CO -11.8%
Cc1ccc(C2NC(=O)c3n[nH]c(-c4cccs4)c32)cc1 (stereo not given) -7.96%
Cc1ccc(Cl)cc1N1CCN(C(=O)Cn2nc(C)c3sc4ccccc4c3c2=O)CC1 -15.3%
COCCNC(=O)c1c(NC(=O)c2cc(=O)c3cc(C)cc(C)c3o2)sc2c1CCCC2 -9.03%
Cc1ccc(NC(=O)CSc2nc3ccc(NC(=O)c4ccco4)cc3s2)cc1 -3.4%
COc1ccc(C2CC(=O)c3cc(-c4nc(-c5cccc([N+](=O)[O-])c5)cs4)c(=O)n(-c4cccc(C)c4)c3C2)cc1 (stereo not given) -5.75%
COc1cc(C(=O)NCc2ccc3c(c2)CCN3C(=O)c2ccc(Cl)cc2)cc(OC)c1OC -6.17%
COC(=O)c1c(NC(=O)Cc2coc3cc(C)cc(C)c23)sc2c1CCC2 -10.4%
Cc1ccc(NC(=O)CSc2nc(=O)n(Cc3ccccn3)c3c2CCC3)cc1F -1.22%
COc1cccc(Cn2c(C)c(CNCc3cccc(C)c3)c(C(=O)O)c2C)c1 2.27%
O=C(Nc1ccccc1Cl)N1CCC2(CC1)Oc1ccccc1C(=O)N2Cc1ccc(F)cc1 -15.6%
CC(=O)c1ccc(NC(=O)c2ccc(-c3nc(CSc4ccc(C)cc4)c(C)o3)cc2)cc1 -13.1%
CCc1ccc(NC(=O)c2cnc3c(-c4ccccc4)c(C)nn3c2C)cc1 -5.43%
CCc1ccccc1NC(=O)Cn1c(=O)n(CCc2ccccc2)c(=O)c2sc3ccccc3c21 0.528%
COc1ccc(-c2c3c(nc4sc(C(=O)Nc5cccc(OC)c5)c(N)c24)CC(C)(C)CC3=O)cc1 -9.76%
NC(=O)NC(=O)Cc1ccccc1 -13.2%
O=C(CSc1nc2ccccc2nc1Cc1ccccc1)N1CCc2ccccc21 -12%
Cc1cccc(-c2nc3c4ccccc4nc(N4CCN(c5cccc(Cl)c5)CC4)n3n2)c1 -11.4%
Cc1cc(C)c2oc(-c3cccc(NC(=O)c4cccc(F)c4)c3C)nc2c1 -3.33%
CCC(C)NC(=O)c1ccc(CNS(=O)(=O)c2ccc3c(c2)C(C)(C)C(=O)N3C)cc1 (stereo not given) 4.39%
CCCCN(C)C(=O)CSc1c2c(nc3ccc(Cl)cc13)CCCC2 -20.8%
COc1ccc(CCNC(=O)c2ccc(Cn3c(=O)c4cccn4c4cccnc43)cc2)cc1OC 2.37%
Cc1cc(C)n2nc(CNS(=O)(=O)c3cccc(Cl)c3)nc2n1 -8.83%
Cc1cc(C(=O)N2CCN(c3ccccc3F)CC2)c2c(C)nn(-c3ccccc3)c2n1 -2.99%
Cc1cc(C)c2c(n1)nn1c(C)c(CCC(=O)Nc3cccc(C)c3C)c(C)nc21 -17%
Cc1cccc(N2CCN(CCCNC(=O)Cn3ncc4c([nH]c5ccccc54)c3=O)CC2C)c1 (stereo not given) 6.24%
Cc1ccc(Cl)cc1N1CCN(C(=O)C2CCN(S(=O)(=O)c3cn(C)cn3)CC2)CC1 -2.67%
Cc1ccc(Cl)cc1NC(=O)CN1C=NS(=O)(=O)c2ccccc21 -13.7%
CCc1ccc(S(=O)(=O)Nc2ccc3c(c2)sc(=O)n3C)cc1 -18.4%
CCc1nn(CCCC(=O)NCc2ccccc2OC)c(=O)c2cc3occc3n12 -12.6%
